Assay results from the supplement of paper PMC11417369.
The other results are listed elsewhere or left out.

The sequences below were run on PfSIP2 AP2 domain 1 (GST-tagged) (assay: gcPBM binding intensity (ln(normalized median fluorescence intensity)); higher = stronger DNA binding).
Method in brief: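 Binding intensity is defined as the maximum Masliner-normalised natural-log median intensity across replicate spots for either probe orientation. It was measured on an Agilent 4 × 180k array of primer-extended double-stranded 36-bp intergenic genomic probes and negative controls, to which GST-tagged P. falciparum DNA-binding domains made in E. coli were applied for 1 h in 1× PBS with 1% milk, 0.2 mg/ml BSA, 0.5% salmon testes DNA and 0.03% Triton X-100. Detection was by Alexa488 anti-GST antibody and scanning at 488 nm.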
With “AAAAAAAAAAATATAACACACAACAAAAAAATATAT [CACACA_site1753]” the “gcPBM binding intensity (ln)” value was 7.1. “AATATTTGTTAAAGAGGTACACCATTTGGTAGGGAA [XGTACX_site2165]” was tested, and the “gcPBM binding intensity (ln)” value was 7.06. In the case of “TATTTTAACATTAGGTGTACATACAAAAATAAAAAT [XGTACX_site8577]”, the “gcPBM binding intensity (ln)” value is reported as 7.37. In the case of “TTTTTCAAATTTAATACACACACAAGTATATATTTA [CACACA_site9307]”, the “gcPBM binding intensity (ln)” value is reported as 6.74. For “TTTTTCTTTTTACATACACACAAAAAAATAAAATAT [CACACA_site581]”, the “gcPBM binding intensity (ln)” value was 7.16. For “AAATTAATATTATGTGCATGCACAAAGAGGAACGAC [TGCATGCA_site754]”, the “gcPBM binding intensity (ln)” value was 9.49. With “TGGTAATTTCTTTGATAAAAATTAATATGTATAAAT [XGTACX_negctrl_site152]” the “gcPBM binding intensity (ln)” value was 6.82. With “TAATTAAATAAAAAAACACACACATATATACATATA [CACACA_site9141]” the “gcPBM binding intensity (ln)” value was 6.84. In the case of “TCTATTAATTAATATACACACATTAGATATAAATAT [CACACA_site7241]”, the “gcPBM binding intensity (ln)” value is reported as 7.05. With “ACACATATATAAATATGTACATATATATATATACAT [XGTACX_site1595]” the “gcPBM binding intensity (ln)” value was 7.3. With “AAAAAACAAAAAATTACACACATATATAAATATATT [CACACA_site2317]” the “gcPBM binding intensity (ln)” value was 6.82. In the case of “TAATAAAGGTGTAATACACACTATAAAAAGGAATAT [CACACA_site4756]”, the “gcPBM binding intensity (ln)” value is reported as 7.1. For “ATGTGTATATATTATTGTACATATATATATATATAT [XGTACX_site4627]”, the “gcPBM binding intensity (ln)” value was 9.69. For “AAAAAAAAAAAAAAAAGTACTAATTGAATATTAAAC [XGTACX_site3383]”, the “gcPBM binding intensity (ln)” value was 7.52. “ACATATATATAAATATATATATATATATATATATAT [CACACA_negctrl_site874]” was tested, and the “gcPBM binding intensity (ln)” value was 9.38. In the case of “ATGGTAAGTATTTTATGTACATATATATTTATATAA [XGTACX_site4003]”, the “gcPBM binding intensity (ln)” value is reported as 7.16. With “TACACCCATAGACACACACACACGCATAAAAAAAAA [CACACA_site8428]” the “gcPBM binding intensity (ln)” value was 7.55. For “TTATTATGCTGAGTACGTACTTATATAAGAATAGCA [XGTACX_site2955]”, the “gcPBM binding intensity (ln)” value was 7.29. “TAAGTTCACAAAAAAAAAAAAAAATAAAGAAATAAA [CACACA_negctrl_site825]” was tested, and the “gcPBM binding intensity (ln)” value was 6.65. In the case of “AAATTATTTCCGTGTACACATAAATATATATTTTAT [CACACA_site5121]”, the “gcPBM binding intensity (ln)” value is reported as 7.52. For “TATCATGTCTGTATTTCACACACGGATAATCATTTA [CACACA_site920]”, the “gcPBM binding intensity (ln)” value was 6.63. With “ATGTATATAATAAGAACACACATATATTTAATTTAA [CACACA_site2941]” the “gcPBM binding intensity (ln)” value was 6.76. With “TGTTATATTTAATATAGTACATATTATTTTATATAT [XGTACX_site70]” the “gcPBM binding intensity (ln)” value was 7.03. For “AAAAATAAAATATATACATGCATATACATATTATAT [TGCATGCA_site668]”, the “gcPBM binding intensity (ln)” value was 6.99. “ATTTATATGCACCATTGTACGTTTTATAAAGTTTGG [XGTACX_site3755]” was tested, and the “gcPBM binding intensity (ln)” value was 10.7. With “AGAAAATTAAAAAGAACACACAAATATATATAGAAT [CACACA_site3592]” the “gcPBM binding intensity (ln)” value was 7.2. With “ATACATATATACATACGTACTTATATACATATGTGC [XGTACX_site5268]” the “gcPBM binding intensity (ln)” value was 7.16. For “AAAATAATATTTAATACACACACCAGTTCTGCAAAT [CACACA_site3736]”, the “gcPBM binding intensity (ln)” value was 6.89. For “TAATAAGTAAAAAAATGTACCCGTTAGGTTTAATAA [XGTACX_site638]”, the “gcPBM binding intensity (ln)” value was 6.71. For “TTTTTCTCTCTCTTATTATACAACAACAAAAAAAAA [GTGCAC_negctrl_site178]”, the “gcPBM binding intensity (ln)” value was 7.38. In the case of “AGAAATATATATATATATATATGTGACAATATTTGT [TGCATGCA_negctrl_site282]”, the “gcPBM binding intensity (ln)” value is reported as 7.6. “TTTTTTTATTTTATTTTATTATCTTATGTATCACAA [CACACA_negctrl_site1755]” was tested, and the “gcPBM binding intensity (ln)” value was 6.93. In the case of “ACAAAAAGGTAATTTACACACTGCATATAGGAATAA [CACACA_site2929]”, the “gcPBM binding intensity (ln)” value is reported as 6.96. “TTTGTTCATATTATTGTGCACTTAAACGTAACAAAA [GTGCAC_site9505]” was tested, and the “gcPBM binding intensity (ln)” value was 10.2. With “TTTATATTCTTAAGTGTGCACTATATATATATATAT [GTGCAC_site9719]” the “gcPBM binding intensity (ln)” value was 10.1. With “ACCCTATATGTAACTACACACCGCATATTGTTTACT [CACACA_site3071]” the “gcPBM binding intensity (ln)” value was 7.37. With “ATGTATGTATATACTTGTACATATTCATATTAGTAT [XGTACX_site1118]” the “gcPBM binding intensity (ln)” value was 6.99. In the case of “AATGTAGCATTTTATCGTACACTTAATACAAAAAAG [XGTACX_site6214]”, the “gcPBM binding intensity (ln)” value is reported as 7.02. “CAATTACAAAAGAAATGTACTCGTAATAAATAAATA [XGTACX_site1126]” was tested, and the “gcPBM binding intensity (ln)” value was 7.22. “TGAAATTTTTATACATGTACAAAATTAAATATAACA [XGTACX_site7324]” was tested, and the “gcPBM binding intensity (ln)” value was 7.09. For “TATAATAATAATAATAGTACGTATTATTAAAAAACT [XGTACX_site10]”, the “gcPBM binding intensity (ln)” value was 7.03. In the case of “ATATTACACATATATGCACACATTGTAGTTATTTAT [CACACA_site8843]”, the “gcPBM binding intensity (ln)” value is reported as 9.43. “ATGCACTCATTGTGCACACGCATATTACGAAAAGAA [CACACA_site2638]” was tested, and the “gcPBM binding intensity (ln)” value was 10.2. In the case of “AAAAAAAAAAAAAACACACACACACCCATACAAAAT [CACACA_site1446]”, the “gcPBM binding intensity (ln)” value is reported as 7.43.
